Experimental data reported in the supplement of paper PMC4967469.

What was measured:
Assay in all cases: Viability of human cancer cell lines after 72 h of drug (GDSC screen)
KU-55933 = compound: O=c1cc(-c2cccc3c2Sc2ccccc2S3)oc(N2CCOCC2)c1 [KU-55933]; settings: top dose 10 µM
Experimental: (§1)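 Human cancer cell lines in 384-well plates, medium with 10% serum, drug for 72 h over a 256-fold dose range (nine 2-fold or five 4-fold steps up to the top dose). Adherent lines were fixed and stained with the nucleic acid dye Syto60, suspension lines read with resazurin; signal relative to control wells, capped at 0 and 100%. One two-parameter sigmoid per drug and line, fitted in a mixed model over all curves with the slope shared within a line.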

MPS-1-IN-1 = compound: COc1cc(N2CCC(O)CC2)ccc1Nc1cc(Nc2ccccc2S(=O)(=O)C(C)C)c2cc[nH]c2n1 [MPS-1-IN-1]; settings: top dose 20 µM; top dose inferred
Experimental: as §1

GSK269962A = compound: CCn1c(-c2nonc2N)nc2cnc(Oc3cccc(NC(=O)c4ccc(OCCN5CCOCC5)cc4)c3)cc21 [GSK269962A]; settings: top dose inferred
Experimental: as §1

QL-X-138 = compound: C=CC(=O)Nc1cc(-n2c(=O)ccc3cnc4ccc(-c5cn[nH]c5)cc4c32)ccc1C [QL-X-138]; settings: top dose 10.24 µM; top dose inferred
Experimental: as §1

CHIR-99021 = compound: Cc1cnc(-c2cnc(NCCNc3ccc(C#N)cn3)nc2-c2ccc(Cl)cc2Cl)[nH]1 [CHIR-99021]
Experimental: as §1

CP466722 = compound: COc1cc2ncnc(-n3nc(-c4ccccn4)nc3N)c2cc1OC [CP466722]; settings: top dose 16 µM; top dose inferred
Experimental: as §1

Cytarabine = compound: Nc1ccn([C@@H]2O[C@H](CO)[C@@H](O)[C@@H]2O)c(=O)n1 [Cytarabine]; settings: top dose 2 µM
Experimental: as §1

ABT-869 = compound: Cc1ccc(F)c(NC(=O)Nc2ccc(-c3cccc4[nH]nc(N)c34)cc2)c1 [ABT-869]; settings: top dose 1.024 µM; top dose inferred
Experimental: as §1

ABT-888 = compound: C[C@]1(c2nc3c(C(N)=O)cccc3[nH]2)CCCN1 [ABT-888]; settings: top dose 5 µM; top dose inferred
Experimental: as §1

(5Z)-7-Oxozeaenol = compound: COc1cc(O)c2c(c1)/C=C/C[C@H](O)[C@H](O)C(=O)/C=C\C[C@H](C)OC2=O [(5Z)-7-Oxozeaenol]; settings: top dose 10 µM; top dose inferred
Experimental: as §1

Thapsigargin = compound: C/C=C(/C)C(=O)O[C@H]1C(C)=C2[C@H]([C@@H]1OC(=O)CCCCCCC)[C@@](C)(OC(C)=O)C[C@H](OC(=O)CCC)[C@@]1(O)[C@H]2OC(=O)[C@@]1(C)O [Thapsigargin]; settings: top dose 0.512 µM; top dose inferred
Experimental: as §1

Zibotentan = compound: COc1nc(C)cnc1NS(=O)(=O)c1cccnc1-c1ccc(-c2nnco2)cc1 [Zibotentan]; settings: top dose 20 µM; top dose inferred
Experimental: as §1

[1] = top dose 2.5 µM, screen: GDSC drug entry 127
[2] = top dose 5 µM, screen: GDSC drug entry 1192
[3] = top dose 2.56 µM, screen: GDSC drug entry 154
[4] = top dose 10 µM, screen: GDSC drug entry 1241, top dose inferred

| Cell Line | AUC (KU-55933) | IC50 (KU-55933) | AUC (MPS-1-IN-1) | IC50 (MPS-1-IN-1) | AUC (GSK269962A; [1]) | IC50 (GSK269962A; [1]) | AUC (GSK269962A; [2]) | IC50 (GSK269962A; [2]) | AUC (QL-X-138) | IC50 (QL-X-138) | AUC (CHIR-99021; [3]) | IC50 (CHIR-99021; [3]) | AUC (CHIR-99021; [4]) | IC50 (CHIR-99021; [4]) | AUC (CP466722) | IC50 (CP466722) | AUC (Cytarabine) | IC50 (Cytarabine) | AUC (ABT-869) | IC50 (ABT-869) | AUC (ABT-888) | IC50 (ABT-888) | AUC ((5Z)-7-Oxozeaenol) | IC50 ((5Z)-7-Oxozeaenol) | AUC (Thapsigargin) | IC50 (Thapsigargin) | AUC (Zibotentan) | IC50 (Zibotentan) |
| --- | --- | --- | --- | --- | --- | --- | --- | --- | --- | --- | --- | --- | --- | --- | --- | --- | --- | --- | --- | --- | --- | --- | --- | --- | --- | --- | --- | --- |
| D-542MG (glioma, adherent) | 0.984 | > 10 µM | 0.904 | > 20 µM | 0.885 | > 2.5 µM | 0.91 | > 5 µM | 0.916 | > 10.2 µM | 0.96 | > 2.56 µM | 0.891 | > 10 µM | 0.957 | > 16 µM | 0.857 | > 2 µM | 0.982 | > 1.02 µM | 0.984 | > 5 µM | 0.772 | 4.72 µM | 0.343 | 0.0106 µM | 0.984 | > 20 µM |
| DAN-G (pancreas, adherent) | 0.989 | > 10 µM | 0.934 | > 20 µM | – | – | 0.953 | > 5 µM | 0.891 | 9.31 µM | 0.992 | > 2.56 µM | 0.979 | > 10 µM | 0.91 | > 16 µM | 0.901 | > 2 µM | 0.991 | > 1.02 µM | 0.991 | > 5 µM | 0.83 | 5.24 µM | 0.941 | > 0.512 µM | 0.991 | > 20 µM |
| DBTRG-05MG (glioma, adherent) | 0.984 | > 10 µM | 0.859 | > 20 µM | – | – | 0.909 | > 5 µM | 0.787 | 5.28 µM | 0.911 | > 2.56 µM | 0.918 | > 10 µM | 0.965 | > 16 µM | 0.848 | 1.89 µM | 0.98 | > 1.02 µM | 0.94 | > 5 µM | 0.434 | 0.4 µM | 0.322 | 0.00926 µM | 0.982 | > 20 µM |
| DK-MG (glioma, adherent) | 0.949 | > 10 µM | 0.87 | > 20 µM | – | – | 0.87 | > 5 µM | 0.509 | 0.684 µM | 0.967 | > 2.56 µM | 0.923 | > 10 µM | 0.525 | 1.21 µM | 0.897 | > 2 µM | 0.8 | 0.812 µM | 0.978 | > 5 µM | 0.566 | 1.03 µM | 0.499 | 0.0319 µM | 0.975 | > 20 µM |
| DMS-273 (small cell lung carcinoma, adherent) | 0.927 | > 10 µM | 0.829 | 13.5 µM | – | – | 0.955 | > 5 µM | 0.479 | 0.559 µM | 0.917 | > 2.56 µM | 0.983 | > 10 µM | 0.852 | 13.5 µM | 0.832 | 1.38 µM | 0.981 | > 1.02 µM | 0.985 | > 5 µM | 0.474 | 0.527 µM | 0.1 | < 0.002 µM | 0.974 | > 20 µM |
| DOK (head and neck, adherent) | 0.895 | > 10 µM | 0.933 | > 20 µM | – | – | 0.784 | 3.38 µM | 0.895 | > 10.2 µM | 0.96 | > 2.56 µM | 0.958 | > 10 µM | 0.82 | > 16 µM | 0.86 | > 2 µM | 0.972 | > 1.02 µM | 0.957 | > 5 µM | 0.533 | 0.805 µM | 0.883 | > 0.512 µM | 0.976 | > 20 µM |
| Detroit562 (head and neck, adherent) | 0.979 | > 10 µM | 0.975 | > 20 µM | – | – | 0.798 | 2.28 µM | 0.935 | > 10.2 µM | 0.988 | > 2.56 µM | 0.944 | > 10 µM | 0.94 | > 16 µM | 0.852 | 1.46 µM | 0.981 | > 1.02 µM | 0.988 | > 5 µM | 0.772 | 3.71 µM | 0.275 | 0.00759 µM | 0.986 | > 20 µM |
| DoTc2-4510 (cervix, adherent) | 0.913 | > 10 µM | 0.959 | > 20 µM | – | – | 0.977 | > 5 µM | 0.854 | 7.41 µM | 0.966 | > 2.56 µM | 0.959 | > 10 µM | 0.922 | > 16 µM | 0.885 | 1.99 µM | 0.983 | > 1.02 µM | 0.988 | > 5 µM | 0.406 | 0.351 µM | 0.361 | 0.0135 µM | 0.989 | > 20 µM |
| EFM-192A (breast, adherent) | 0.963 | > 10 µM | 0.97 | > 20 µM | – | – | 0.907 | > 5 µM | 0.985 | > 10.2 µM | 0.908 | > 2.56 µM | 0.939 | > 10 µM | 0.825 | 11 µM | 0.975 | > 2 µM | 0.982 | > 1.02 µM | 0.976 | > 5 µM | 0.781 | 4.62 µM | 0.172 | 0.00281 µM | 0.972 | > 20 µM |
| EFO-27 (ovary, adherent) | 0.956 | > 10 µM | 0.849 | > 20 µM | – | – | 0.434 | 0.197 µM | 0.734 | 3.59 µM | 0.977 | > 2.56 µM | 0.868 | > 10 µM | 0.825 | 13 µM | 0.832 | 1.75 µM | 0.973 | > 1.02 µM | 0.972 | > 5 µM | 0.673 | 2.15 µM | 0.467 | – | 0.971 | > 20 µM |

Lines with a small IC50 respond at low doses; fits outside the tested doses are given as limits. For AUC the same curve is integrated over the 256-fold range of doses and scaled to a fraction; it is 1 without any effect and falls as sensitivity rises. For part of these data: An inferred top dose was calculated from the reported fits. For part of these data: Where an entry number is given, a second screen of the drug exists; the two often differ.
